According to the supplement of paper PMC12217912:
Some of the results follow. Sequences were assembled here from the parent chain. Inactive controls read about 0.05.

B1: TEV protease; numbered along this chain (parent)
chain: MGESLFKGPRDYNPISSSICHLTNESDGHTTSLYGIGFGPFIITNKHLFRRNNGTLVVQSLHGVFKVKDTTTLQQHLVDGRDMIIIRMPKDFPPFPQKLKFREPQREERICLVTTNFQTKSMSSMVSDTSCTFPSGDGIFWKHWIQTKDGQCGSPLVSTRDGFIVGIHSASNFTNTNNYFTSVPKNFMELLTNQEAQQWVSGWRLNADSVLWGGHKVFMVKPEEPFQPVKEATQL

Variants of: B1
Assay: raw area under fraction-flipped curve 0-4 h after induction (AUC4h, not background-subtracted), DNA-recorder readout of cleavage of the substrate (dimensionless); higher = more cleavage of the substrate by the protease variant
Details: temperature: 34 °C; time window: 0-4 h after rhamnose induction
Protocol: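 In vivo DNA recorder in E. coli TOP10(DE3) ΔrhaA at 34 °C. Each TEVp single-site mutant (parent TEVp 0) is paired with a single-site variant of the 7-mer TEVs (canonical ENLYFQ|S). The substrate sits between flexible linkers in a Bxb1-sfGFP-TEVs-SsrA fusion, so cleavage stabilises Bxb1 and speeds flipping of a recombination array, read by NGS. The value is the raw area under the fraction-flipped curve over 0-4 h after rhamnose induction (AUC4h), with ≥20 reads per time point. It is not background-subtracted; inactive controls average about 0.047.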
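Also: Bxb1 expression induced with 0.2% (w/v) L-rhamnose at OD600 near 0.5, cultures sampled hourly, flipped fraction per protease–substrate barcode pair counted by paired-end Illumina sequencing.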

Variant | area with substrate ENLAFQS | area with substrate ENLCFQS | area with substrate ENLDFQS | area with substrate ENLFFQS | area with substrate ENLHFQS | area with substrate ENLIFQS | area with substrate ENLKFQS | area with substrate ENLPFQS | area with substrate ENLQFQS | area with substrate ENLRFQS
G2F | 0.0704 | 0.0944 | 0.0677 | 0.101 | 0.0815 | 0.107 | 0.102 | 0.0679 | 0.118 | 0.0829
G2K | 0.0718 |  |  | 0.16 | 0.0772 |  |  | 0.0515 | 0.0662 | 
G2Y | 0.0822 |  |  | 0.105 |  |  | 0.103 |  |  | 
E3A | 0.0531 | 0.0458 |  | 0.0817 | 0.0738 | 0.0592 | 0.0673 |  |  | 0.0847
E3V | 0.0718 |  | 0.056 | 0.103 | 0.0799 |  | 0.0907 |  |  | 0.096
E3W | 0.0636 | 0.0657 | 0.0639 | 0.0976 | 0.0586 | 0.0788 | 0.0878 | 0.0604 |  | 0.0936
S4A | 0.0692 |  | 0.0701 | 0.0935 |  |  | 0.0882 |  |  | 0.0771
L5H | 0.0757 | 0.0918 | 0.0517 | 0.117 |  |  | 0.0721 |  |  | 
L5T | 0.0504 |  | 0.0455 | 0.115 | 0.1 |  | 0.0975 | 0.0516 |  | 0.0785
F6A | 0.0452 | 0.0698 |  | 0.0668 | 0.0799 | 0.082 | 0.082 |  |  | 
K7V | 0.0511 |  | 0.0705 | 0.112 | 0.0618 | 0.0565 | 0.113 | 0.0886 |  | 0.0651
K7Y | 0.0761 |  |  | 0.0925 | 0.0405 |  | 0.0739 | 0.0684 | 0.0683 | 
P9N | 0.0822 |  |  |  |  | 0.0921 |  |  | 0.0616 | 
Y12R | 0.0574 |  | 0.0597 | 0.095 | 0.0636 | 0.0807 | 0.0807 | 0.0637 | 0.0573 | 0.0798
I15G | 0.0463 | 0.0705 | 0.0595 |  | 0.0654 | 0.0669 | 0.0631 |  | 0.0604 | 0.0703
S18G | 0.0682 |  | 0.0733 | 0.115 | 0.0618 |  | 0.0849 | 0.0539 | 0.0474 | 0.0664
E25S | 0.0747 | 0.0704 | 0.0566 | 0.0975 |  | 0.0794 | 0.0677 | 0.0726 | 0.0517 | 0.0901

Variant | area with substrate ENLAFQS | area with substrate ENLCFQS | area with substrate ENLDFQS | area with substrate ENLFFQS | area with substrate ENLHFQS | area with substrate ENLIFQS | area with substrate ENLKFQS | area with substrate ENLPFQS | area with substrate ENLQFQS | area with substrate ENLRFQS
T30D | 0.0645 | 0.0655 |  | 0.0728 | 0.0646 |  |  |  | 0.0737 | 0.0751
T31I | 0.0611 |  | 0.058 | 0.0805 | 0.0667 |  | 0.0961 | 0.0583 |  | 0.0647
L33D | 0.0518 | 0.0553 | 0.0567 | 0.0531 | 0.057 |  | 0.068 | 0.0391 |  | 0.05
Y34H | 0.0664 | 0.068 | 0.0577 |  | 0.0789 |  | 0.0985 | 0.0497 | 0.0762 | 
G35S | 0.0588 |  | 0.054 |  |  |  |  |  |  | 
G35T | 0.0459 |  | 0.0456 | 0.0375 | 0.0347 |  | 0.0558 | 0.0517 | 0.0335 | 
F38V | 0.045 |  | 0.0602 | 0.0624 |  |  |  |  | 0.0563 | 
N45G | 0.0718 |  | 0.0615 |  | 0.0575 | 0.0521 | 0.0798 | 0.0601 |  | 0.0624
R50N | 0.0612 |  | 0.0628 | 0.0618 | 0.0676 |  |  |  |  | 
R51N | 0.0789 |  |  | 0.0698 |  |  | 0.0558 |  | 0.0574 | 
R51S | 0.0722 |  |  | 0.0556 |  |  |  | 0.0583 |  | 
V57E | 0.0462 |  | 0.0624 | 0.0816 | 0.0681 |  | 0.0743 | 0.0657 | 0.063 | 0.0929
Q59H | 0.0645 | 0.0653 | 0.0563 | 0.0897 | 0.069 |  | 0.0775 |  | 0.0706 | 
Q59N | 0.0636 | 0.0647 | 0.0732 | 0.0705 | 0.0765 | 0.0869 | 0.0606 | 0.0707 |  | 
S60W | 0.0525 |  | 0.0642 | 0.0725 | 0.0907 |  | 0.0864 | 0.0662 |  | 0.07
L61F | 0.0478 |  | 0.063 | 0.0775 |  |  |  | 0.0495 |  | 
F65I | 0.0535 | 0.0575 | 0.0672 | 0.0605 |  | 0.0852 |  | 0.0676 |  | 

Same assay, conditions: temperature: 34 °C; time window: 0-4 h after rhamnose induction

Variant | area with substrate ENLSFQS | area with substrate ENLNFQS | area with substrate ENLWFQS | area with substrate ENLEFQS | area with substrate ENLLFQS | area with substrate ENLMFQS | area with substrate ENLTFQS | area with substrate ENLGFQS | area with substrate ENLVFQS
G2F | 0.0731 |  |  |  |  |  |  |  | 
G2K | 0.0672 | 0.0588 | 0.0906 |  |  |  |  |  | 
G2Y |  | 0.0735 |  | 0.0781 | 0.113 |  |  |  | 
E3A |  |  | 0.0528 |  | 0.0701 | 0.0901 |  |  | 
E3V | 0.0987 | 0.0688 |  | 0.0548 |  |  |  |  | 
E3W |  | 0.0717 |  | 0.0781 |  | 0.0774 | 0.0657 |  | 
S4A |  | 0.0678 | 0.0727 |  |  |  |  | 0.0076 | 
L5H |  | 0.0662 |  |  |  |  |  |  | 
L5T | 0.0808 | 0.0576 | 0.0563 |  |  |  |  | 0.0381 | 0.0439
K7V | 0.0545 | 0.0527 |  | 0.0654 | 0.0711 | 0.0152 |  |  | 0.0669
K7Y | 0.0662 | 0.0401 |  |  |  | 0.104 |  | 0.0549 | 
P9N |  |  | 0.0693 |  | 0.0803 |  |  |  | 
Y12R | 0.0771 | 0.0439 |  | 0.0546 | 0.0767 |  |  |  | 0.081
I15G | 0.0638 | 0.0562 |  | 0.0835 |  |  |  | 0.0642 | 0.0643
S18G |  | 0.0658 |  |  | 0.0836 | 0.0847 | 0.0526 |  | 
E25S | 0.0709 | 0.0689 | 0.0743 | 0.0605 | 0.0797 |  |  | 0.0664 | 

Variant | area with substrate ENLSFQS | area with substrate ENLNFQS | area with substrate ENLWFQS | area with substrate ENLEFQS | area with substrate ENLLFQS | area with substrate ENLMFQS | area with substrate ENLTFQS | area with substrate ENLGFQS | area with substrate ENLVFQS
T30D |  | 0.0624 |  | 0.0547 |  |  |  | 0.0673 | 0.0701
T31I | 0.0753 | 0.069 | 0.113 |  |  |  | 0.0728 | 0.0604 | 
L33D | 0.0503 | 0.0542 | 0.0528 | 0.056 | 0.0627 | 0.0571 |  |  | 
Y34H |  |  | 0.0515 |  | 0.0814 |  |  |  | 
G35S |  |  |  |  | 0.0523 |  |  |  | 
G35T | 0.0483 |  |  | 0.0226 |  |  |  |  | 
F38V |  | 0.0606 | 0.0675 |  | 0.0725 |  |  |  | 
N45G | 0.0618 | 0.0663 | 0.051 | 0.0716 | 0.0532 | 0.0815 | 0.0672 |  | 
R51N |  | 0.0664 |  |  |  |  |  |  | 
V57E | 0.055 | 0.0391 | 0.0786 |  |  |  |  | 0.0921 | 
Q59H | 0.0654 | 0.0576 | 0.105 | 0.0773 | 0.0628 |  |  |  | 
Q59N |  | 0.0693 | 0.0401 | 0.0625 |  |  |  |  | 0.092
S60W |  | 0.0388 |  | 0.0692 | 0.0733 |  |  | 0.0634 | 
L61F | 0.0597 | 0.07 |  |  |  |  |  | 0.0587 | 0.0814
F65I |  |  |  | 0.0662 | 0.0711 |  | 0.0711 |  | 
